Laboratory results published in paper PMC7819943, “Rice protein-binding microarrays: a tool to detect cis-acting elements near promoter regions in rice”.
The list shows a part of the results.

Molecular target: T1, OsWOX13 (Oryza sativa, UniProt Q5QMM3 1-267)
T1 sequence: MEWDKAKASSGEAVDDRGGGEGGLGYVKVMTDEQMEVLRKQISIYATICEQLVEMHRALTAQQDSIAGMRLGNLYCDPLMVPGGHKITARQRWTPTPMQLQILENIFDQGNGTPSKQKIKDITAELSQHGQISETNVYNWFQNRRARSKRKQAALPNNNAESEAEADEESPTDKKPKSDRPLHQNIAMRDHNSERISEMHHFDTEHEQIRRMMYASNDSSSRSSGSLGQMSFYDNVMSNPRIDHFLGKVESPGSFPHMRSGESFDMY
Test: protein-binding microarray (RPBM); PBS, 2% BSA, 51.3 ng/ul salmon testes DNA, 50 uM zinc acetate, 200 nM TF, 25 C, 1 h; high values mean tight binding
Conditions: protein: recombinant; tags: N-terminal polyhistidine and DsRed monomer fusion (pET32a); label: CyDye5-dUTP incorporated in the synthesized complementary strand; 3' TTTTT single-stranded linker to array surface; dsDNA, one strand shown
Outline: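 The binding signal for each feature is its fluorescence intensity in arbitrary units. An Axon 4000B scanner was used to read a custom Agilent array that had been made double-stranded with Cy5-dUTP primer extension, blocked with 2% BSA, incubated at 25 °C for 1 h with 200 nM protein in PBS, 2% BSA, salmon testes DNA and 50 µM zinc acetate, and washed. The protein was an N-terminal polyhistidine–DsRed transcription factor fusion from E. coli BL21-CodonPlus, purified on Ni–NTA.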

Sequence | binding signal
TCTTCCCTTGCTTAATTAATGGCCCAAATGCTGCTCGCCCCGGAGTCACCTAGTGCAG | 3720 fluorescence intensity (a.u.)
TTTCAATCAAACTTTCAATTTTAGTATGAAGTAAACACACCGGAGTCACCTAGTGCAG | 30400 fluorescence intensity (a.u.)
GCTGATGGGATTGAGATGAAATGAAATCAAAGGGAGCATGCGGAGTCACCTAGTGCAG | 36500 fluorescence intensity (a.u.)
ACTAAATTTCCTCCATTCGAAAGCAGAGCAAAGTTGGAGGCGGAGTCACCTAGTGCAG | 4330 fluorescence intensity (a.u.)
GTTTGATCGAAATTTGGTAAATATCGCTGTACTTCAATTACGGAGTCACCTAGTGCAG | 6010 fluorescence intensity (a.u.)
GTGAAGATTATTTTAATCTTATTATTATTATTTTACGGTTCGGAGTCACCTAGTGCAG | 5000 fluorescence intensity (a.u.)
AATTGAAAGACGAGGATTAATGAAAGGATTTCGCTGACTGCGGAGTCACCTAGTGCAG | 3570 fluorescence intensity (a.u.)
CTCAATTTATTATGATATGTTGCATCAATGTTAAGTTTCACGGAGTCACCTAGTGCAG | 3360 fluorescence intensity (a.u.)
ACTTCGCTAATGATTATCATCCCCTCCTACCTCCCGAACACGGAGTCACCTAGTGCAG | 16200 fluorescence intensity (a.u.)
AATTTGATGTAAATTATCTATGATTTTAGTGCATAAACTTCGGAGTCACCTAGTGCAG | 29500 fluorescence intensity (a.u.)
AACCGATTCCAATCATTTAACCAAACCCATGCTTATGCGACGGAGTCACCTAGTGCAG | 16100 fluorescence intensity (a.u.)
GAGATCGATTGATCGAATCGAAGAAACCCCAAACCCCACCCGGAGTCACCTAGTGCAG | 5620 fluorescence intensity (a.u.)
AAAACATGAAATAAATTAAAGAAAATAGTCCTATATAGGCCGGAGTCACCTAGTGCAG | 4540 fluorescence intensity (a.u.)
GGGGACCTGTAATTGTGATACTGTAAACATTAACCTTTACCGGAGTCACCTAGTGCAG | 3980 fluorescence intensity (a.u.)
ATCGCAAATTACAAGTGGTATATAGTACTACAAACGTATCCGGAGTCACCTAGTGCAG | 3370 fluorescence intensity (a.u.)
GAAAATTATATAATGTTCTGTCACTGAAGTACTACCAATTCGGAGTCACCTAGTGCAG | 11600 fluorescence intensity (a.u.)
CCATGTAGCCAATCATGTATGGAAGAATGAAGAGTCATGCCGGAGTCACCTAGTGCAG | 8500 fluorescence intensity (a.u.)
ATTCGATTGAAGTTTTATAGGTTTTCAATGGTAGTGCACCCGGAGTCACCTAGTGCAG | 9030 fluorescence intensity (a.u.)
TGCCCTAATTTCTTATTTGGTGTACGGTTGTAATGGTGTACGGAGTCACCTAGTGCAG | 6180 fluorescence intensity (a.u.)
CACACTTCTTAATTGCCCTCCTGCATTATGTTTGTTGATCCGGAGTCACCTAGTGCAG | 5770 fluorescence intensity (a.u.)
GGAAATTAACTGTATCAAGCACATGGTAATTATTTGATTACGGAGTCACCTAGTGCAG | 17900 fluorescence intensity (a.u.)

Sequence | binding signal
AACATTGATGAGAATTGAAATCATTTCGTTGCTCTAATCTCGGAGTCACCTAGTGCAG | 13400 fluorescence intensity (a.u.)
CCGTCAATATTTATTTAATAGATTAGATGAGATAAGAGGACGGAGTCACCTAGTGCAG | 8100 fluorescence intensity (a.u.)
ACATTTCTCTCAATCTCTTAACTATCCCACTAGTACTCCACGGAGTCACCTAGTGCAG | 3240 fluorescence intensity (a.u.)
AATGAGTGATTAATAAAGCATTCTCTTCCAAAGGAAATGTCGGAGTCACCTAGTGCAG | 23700 fluorescence intensity (a.u.)
TTATTTAAATCAAGATATATTTTAACGTCACCTTTCTCGTCGGAGTCACCTAGTGCAG | 3820 fluorescence intensity (a.u.)
ATCATATTTAATTTTATAATTTCTTTCTCCATCTTGTAAGCGGAGTCACCTAGTGCAG | 15300 fluorescence intensity (a.u.)
ATCCAATTAGGAATTGATATTTCACCTTCTATGCCTTCTGCGGAGTCACCTAGTGCAG | 16500 fluorescence intensity (a.u.)
CACTTCACTCTAAAATTAATTTGTTTCACACTGTTTAGCTCGGAGTCACCTAGTGCAG | 13500 fluorescence intensity (a.u.)
TTTCAATTTGATGGGCCGGATTTTCAAGGCTCAATATCTTCGGAGTCACCTAGTGCAG | 7660 fluorescence intensity (a.u.)
ATCCGTTAAATTTAATGTTTCAGACACAGTAGCAATATGTCGGAGTCACCTAGTGCAG | 7710 fluorescence intensity (a.u.)
CTTGAGGGATAATTGCTCTTATTATTTGCAACTCTAGAGCCGGAGTCACCTAGTGCAG | 11800 fluorescence intensity (a.u.)
GTCAAATCTCCCAATTAGCACAAATTCCTTCAGTTCCATGCGGAGTCACCTAGTGCAG | 8000 fluorescence intensity (a.u.)
TTGTCATAATTTGAAATTCAAATTCAAACTGTCCAAACAACGGAGTCACCTAGTGCAG | 11400 fluorescence intensity (a.u.)
CAAATTCCAATCATCTCCAAAACCACTTCGCAAATAAATTCGGAGTCACCTAGTGCAG | 17900 fluorescence intensity (a.u.)
TGTATGGATAACACTCAATCAAATACATGTGGTGGTCACGCGGAGTCACCTAGTGCAG | 6880 fluorescence intensity (a.u.)
TAATTTGTTAATTAATTGAGTGGTACTTAATTGACAAATTCGGAGTCACCTAGTGCAG | 51700 fluorescence intensity (a.u.)
TCTGCTGATAGAAGAAACAAACGGGGATCTATTTATAGGTCGGAGTCACCTAGTGCAG | 10400 fluorescence intensity (a.u.)
ACTGTCAAACTGGCTAATTTAGAAAGACGACATCGAATTCCGGAGTCACCTAGTGCAG | 11600 fluorescence intensity (a.u.)
CCTTAATTAATTGTTATAATACTTGTGTACGCTGAACATACGGAGTCACCTAGTGCAG | 51800 fluorescence intensity (a.u.)
CCCTTGATGGAAAATTCTGTAAGATTTAAACTACAAATCTCGGAGTCACCTAGTGCAG | 8100 fluorescence intensity (a.u.)
CAGTAGCTAATTACTCCAATTGTAAAGTCACTGAGGAAAGCGGAGTCACCTAGTGCAG | 6580 fluorescence intensity (a.u.)

Sequence | binding signal
AAATCCTTTTAGATTGGTACGTATATAACATCATCAAACCCGGAGTCACCTAGTGCAG | 3580 fluorescence intensity (a.u.)
CACCTCTTGTTGATTAGACACATGGTGGGTCGAGGAATGGCGGAGTCACCTAGTGCAG | 7200 fluorescence intensity (a.u.)
AAAACATTAATTTTATTGATAAAGAAAACTATGCATATATCGGAGTCACCTAGTGCAG | 7530 fluorescence intensity (a.u.)
CCCGTAATTACCCCAAACACGCAGGGGCATTTCCGTCCACCGGAGTCACCTAGTGCAG | 21700 fluorescence intensity (a.u.)
CATATATAATAATTAACAGATATAGATAGACATCACATCACGGAGTCACCTAGTGCAG | 9750 fluorescence intensity (a.u.)
TTAATTGATGAAGTTGTCTTGTGGGGTAGCAGCACTTTGACGGAGTCACCTAGTGCAG | 29900 fluorescence intensity (a.u.)
GCCATTGACTGAAACAATTCAACTACAACTGATACTAATCCGGAGTCACCTAGTGCAG | 15300 fluorescence intensity (a.u.)
CCTCATAAATAAATTTATTTGATAGCCTCCTAAGAGATTGCGGAGTCACCTAGTGCAG | 14700 fluorescence intensity (a.u.)
TTAATTAATGCATGCTTGGACCAGCAATAAATCCTTGGATCGGAGTCACCTAGTGCAG | 4550 fluorescence intensity (a.u.)
GACTAATCAAACAATTTCCCTCGCTATTAGTCACTGACAGCGGAGTCACCTAGTGCAG | 15100 fluorescence intensity (a.u.)
TGCCACTCAAGTACAATTATTCCCATTAATTCGCTCCATTCGGAGTCACCTAGTGCAG | 5600 fluorescence intensity (a.u.)
AGAAATATTCAATCAAGCTACTGCGCACATATATCTTTATCGGAGTCACCTAGTGCAG | 9630 fluorescence intensity (a.u.)
CTAAACAATAATAATGGGTAACATATAGGGTTCATAATTCCGGAGTCACCTAGTGCAG | 4580 fluorescence intensity (a.u.)
AAAATACTAATTACAGAATCCGTCAGTAAACCGTGGGACACGGAGTCACCTAGTGCAG | 11300 fluorescence intensity (a.u.)
TTCAAATTTATTATTGCCCACAGCCCACAACCACATCGACCGGAGTCACCTAGTGCAG | 6990 fluorescence intensity (a.u.)
TCGGAAAATTATTAGACACCTTTTATTATTTGCAAAAGGCCGGAGTCACCTAGTGCAG | 3380 fluorescence intensity (a.u.)
AGCTGATCTATCCAAATTGGTGAAACTAATTGTAAATTCTCGGAGTCACCTAGTGCAG | 11000 fluorescence intensity (a.u.)
ATTTATGATGACAGTGTTATTATGATAGAGGACAGTGTCACGGAGTCACCTAGTGCAG | 3720 fluorescence intensity (a.u.)
ACTCCCTATTAATTTCCATCACCTTTACCAAACAAGATATCGGAGTCACCTAGTGCAG | 6910 fluorescence intensity (a.u.)
GTTTGATTGGTGCTGTGCATGACTGCATAGCTCTATTCATCGGAGTCACCTAGTGCAG | 40000 fluorescence intensity (a.u.)
ATTTATTCAGATTGAGCTAATCAGCCACCAAACTCGCAGACGGAGTCACCTAGTGCAG | 9730 fluorescence intensity (a.u.)

Sequence | binding signal
TTATCAATTACCGATGTGGGACTAAACCTAACAATCTCCCCGGAGTCACCTAGTGCAG | 22900 fluorescence intensity (a.u.)
CATCGTTTCAATTATAACCAAACTTTTCTACATACACTTCCGGAGTCACCTAGTGCAG | 4160 fluorescence intensity (a.u.)
TTGTGATTGCCAGCATGGCTGCATCTCGACGAGGCGCCCCCGGAGTCACCTAGTGCAG | 22000 fluorescence intensity (a.u.)
ACACAAATTACTGTACAACATGGCTGTATCGTAGTTGAAACGGAGTCACCTAGTGCAG | 4430 fluorescence intensity (a.u.)
ACTGCTGGTAATTGCACAGTTTAATTACCAGCTAATGCATCGGAGTCACCTAGTGCAG | 19300 fluorescence intensity (a.u.)
ATTATTAATTAGGGAAGCGGAGGAACTACAGCAGATGTTACGGAGTCACCTAGTGCAG | 10700 fluorescence intensity (a.u.)
ACCTTGATGACGATTTTATTGAAGAAGAAGAAACAAGACACGGAGTCACCTAGTGCAG | 14700 fluorescence intensity (a.u.)
CTTGATGATTTTATTTATAAAGGTATCAGTTCCAGGCTACCGGAGTCACCTAGTGCAG | 27100 fluorescence intensity (a.u.)
GAGAAAATAATAGATTAGTGAGGCTGACATGTGGGGCCACCGGAGTCACCTAGTGCAG | 12600 fluorescence intensity (a.u.)
GTTGATGGACAGGGAGGGAGGCAAGTGGGGCTGTGAATTCCGGAGTCACCTAGTGCAG | 16600 fluorescence intensity (a.u.)
ACTAAATTTATATCGAGGGGTGAACATATAGTGAAAATAACGGAGTCACCTAGTGCAG | 5540 fluorescence intensity (a.u.)
TTTAAATGTGATGATTTGTTAGTGGATGATGATGTATCATCGGAGTCACCTAGTGCAG | 24000 fluorescence intensity (a.u.)
TTATAATTGGAAAATAAATGAAGGGTTATAATTAAATGAACGGAGTCACCTAGTGCAG | 12000 fluorescence intensity (a.u.)
TATTAATTATGCTCAATAGATTCGTCCCGTGAATTAGTCCCGGAGTCACCTAGTGCAG | 23900 fluorescence intensity (a.u.)
AAAGATAATAATCATAAATGGAAAGAGTGGAAAGAGAAGACGGAGTCACCTAGTGCAG | 3320 fluorescence intensity (a.u.)
TATCCCTAATTATATAGGTTAGTCTATGTTTTATTCTCAACGGAGTCACCTAGTGCAG | 9650 fluorescence intensity (a.u.)
CATGATTAATCAAGTTAATTATTATACACTAAATATTGGACGGAGTCACCTAGTGCAG | 59600 fluorescence intensity (a.u.)
GCGAAGATTGTAAACACAAACTTAGATGGGTTCATTAGTTCGGAGTCACCTAGTGCAG | 4960 fluorescence intensity (a.u.)
GAACTTCCAAATTAGTTTCTAATGACACACAAATCGAGACCGGAGTCACCTAGTGCAG | 4800 fluorescence intensity (a.u.)
AAAATAAATTGAAACCAACTCTTAAATCCGATCTATAGTACGGAGTCACCTAGTGCAG | 13400 fluorescence intensity (a.u.)
AACTAATCAGGGCTTTAGTTTATTTAAGTTTGAGATGGGGCGGAGTCACCTAGTGCAG | 3830 fluorescence intensity (a.u.)
